From patent US20230357793A1 (SORRENTO THERAPEUTICS, published 2023)

Molecular target: recombinant human TGFβ1 (rhTGFβ; Sino Biological) (human) (UniProt P01137)
Test: cell-based or functional assay

Chain of UniProt P01137 (P01137 279-390 limits assumed): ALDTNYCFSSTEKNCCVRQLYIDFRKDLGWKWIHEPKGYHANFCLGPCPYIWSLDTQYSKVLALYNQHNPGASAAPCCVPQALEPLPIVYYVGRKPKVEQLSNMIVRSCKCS

B1: BB9 anti-PD-1 ScFv-Fc4-TGFβRIIecto fusion protein (Fc fusion)
chain: QVQLVQSGAEVKKPGASVKVSCKASGFRLTTNGISWVRQAPGQGLEWMGWISAGGGPTNYAQKLQGRVTMTTDTSTSTAYMELRSLRSDDTAVYYCAKGLYGTKDAWGQGTLVTVSSGGGGSGGGGSGGGGSQSVLTQPPSVSEVPGQRVTISCSGGGSNIGSNAVNWYQHFPGKAPKLLIYYNDLLPSGVSDRFSASKSGTSASLAISGLRSEDEADYYCAAWDDNLSAYVFATGTKVTVL[human IgG4 Fc with S228P (EU numbers) omitted here]GGGGSGGGGSGGGGSIPPHVQKSVNNDMIVTDNNGAVKFPQLCKFCDVRFSTCDNQKSCMSNCSITSICEKPQEVCVAVWRKNDENITLETVCHDPKLPYHDFILEDAASPKCIMKEKKKPGETFFMCSCSSDECNDNIIFSEEYNTSNPD
For B1, the inhibition of CD103 expression (VFCM of SepGI-143) was over 70%.

B2: H6B1LEM anti-PD-L1 ScFv-Fc4-TGFβRIIecto fusion protein (Fc fusion)
chain: QMQLVQSGAEVKKPGSSVKVSCKASGGTFSSYAYSWVRQAPGQGLEWMGGIIPSFGTANYAQKFQGRVTITADESTSTAYMELSSLRSEDTAVYYCARGPIVATITPLDYWGQGTLVTVSSGGGGSGGGGSGGGGSSYVLTQPPSVSVAPGKTATIACGGENIGRKTVHWYQQKPGQAPVLVIYYDSDRPSGIPERFSGSNSGNTATLTISRVEAGDEADYYCLVWDSSSDHRIFGGGTKLTVL[human IgG4 Fc with S228P (EU numbers) omitted here]GGGGSGGGGSGGGGSIPPHVQKSVNNDMIVTDNNGAVKFPQLCKFCDVRFSTCDNQKSCMSNCSITSICEKPQEVCVAVWRKNDENITLETVCHDPKLPYHDFILEDAASPKCIMKEKKKPGETFFMCSCSSDECNDNIIFSEEYNTSNPD
B2 showed an inhibition of CD103 expression (VFCM of SepGI-144) of over 70%.
